Results from patent publication US20180273573A1, “INHIBITORS OF MENAQUINONE BIOSYNTHESIS” (Memorial Sloan-Kettering Cancer Center, priority 2015, published 2018).

System: M. tuberculosis (H37Rv)
Assay: MIC, Alamar blue assay
Assay type: cell-based
Details: Table E5; for MIC: Mycobacterium tuberculosis, H37RV
[1] = with addition of exogenous menaquinone-4 (10 μg/mL), read-out: M. tuberculosis MIC (in parentheses)
[2] = without menaquinone-4, read-out: M. tuberculosis MIC

Row | SMILES | MIC [1] | MIC [2] | M. tuberculosis MIC (in parentheses) (with addition of exogenous menaquinone-4 (10 μg/mL)) | M. tuberculosis MIC (without menaquinone-4)
1 | Nc1ncnc2c1ncn2[C@@H]1O[C@H](COS(=O)(=O)NC(=O)CC[C@@]2(O)c3ccccc3[C@@H](O)C2(F)F)[C@@H](O)[C@H]1O [(1R,3R)-2, 5′-O—(N-[3″-((1R,3R)-2′″,2′″-difluoro-1′″,3′″-dihydroxy-1′″-indanyl)propanoyl]-sulfamoyl)adenosine] | 31.2 µg/mL (≈ 53.2 µM) | 15.6 µg/mL (≈ 26.6 µM) |  | 
2 | Nc1ncnc2c1ncn2[C@@H]1O[C@H](COS(=O)(=O)NC(=O)CC[C@]2(O)c3ccccc3[C@H](O)C2(F)F)[C@@H](O)[C@H]1O [(1S,3S)-2, 5′-O—(N-[3″-((1S,3S)-2′″,2′″-difluoro-1′″,3′″-dihydroxy-1′″-indanyl)propanoyl]sulfamoyl)adenosine] | 31.2 µg/mL (≈ 53.2 µM) | 31.2 µg/mL (≈ 53.2 µM) |  | 
3 | Nc1ncnc2c1ncn2[C@@H]1O[C@H](COS(N)(=O)=O)[C@@H](O)[C@H]1O [AMS, adenosinemonosulfamate, reference compound] |  |  | 0.32 µg/mL | 0.16 µg/mL

≈ marks a conversion by molar mass, not a printed value. Where two headings read alike, the source gives them in different places.
